# Measured values from PMC4336329 (PLoS ONE, 2015).
# The campaign covered roughly 310,000 compounds. About 2,200 (0.71%) showed an effect of 50% or more. The effect is printed as a negative number. The list shows a part of the results. Where a SMILES comes first, the peptide text is derived from it. The star is where a group is joined. Cbz = O=C(OCc1ccccc1)*
# Target: human ether-à-go-go-related gene (hERG) potassium channel (human, UniProt Q12809)
# Assay: primary screen, population patch clamp on CHO cells stably expressing hERG
# Sequence of human ether-à-go-go-related gene (hERG) potassium channel (Q12809 whole entry, looked up): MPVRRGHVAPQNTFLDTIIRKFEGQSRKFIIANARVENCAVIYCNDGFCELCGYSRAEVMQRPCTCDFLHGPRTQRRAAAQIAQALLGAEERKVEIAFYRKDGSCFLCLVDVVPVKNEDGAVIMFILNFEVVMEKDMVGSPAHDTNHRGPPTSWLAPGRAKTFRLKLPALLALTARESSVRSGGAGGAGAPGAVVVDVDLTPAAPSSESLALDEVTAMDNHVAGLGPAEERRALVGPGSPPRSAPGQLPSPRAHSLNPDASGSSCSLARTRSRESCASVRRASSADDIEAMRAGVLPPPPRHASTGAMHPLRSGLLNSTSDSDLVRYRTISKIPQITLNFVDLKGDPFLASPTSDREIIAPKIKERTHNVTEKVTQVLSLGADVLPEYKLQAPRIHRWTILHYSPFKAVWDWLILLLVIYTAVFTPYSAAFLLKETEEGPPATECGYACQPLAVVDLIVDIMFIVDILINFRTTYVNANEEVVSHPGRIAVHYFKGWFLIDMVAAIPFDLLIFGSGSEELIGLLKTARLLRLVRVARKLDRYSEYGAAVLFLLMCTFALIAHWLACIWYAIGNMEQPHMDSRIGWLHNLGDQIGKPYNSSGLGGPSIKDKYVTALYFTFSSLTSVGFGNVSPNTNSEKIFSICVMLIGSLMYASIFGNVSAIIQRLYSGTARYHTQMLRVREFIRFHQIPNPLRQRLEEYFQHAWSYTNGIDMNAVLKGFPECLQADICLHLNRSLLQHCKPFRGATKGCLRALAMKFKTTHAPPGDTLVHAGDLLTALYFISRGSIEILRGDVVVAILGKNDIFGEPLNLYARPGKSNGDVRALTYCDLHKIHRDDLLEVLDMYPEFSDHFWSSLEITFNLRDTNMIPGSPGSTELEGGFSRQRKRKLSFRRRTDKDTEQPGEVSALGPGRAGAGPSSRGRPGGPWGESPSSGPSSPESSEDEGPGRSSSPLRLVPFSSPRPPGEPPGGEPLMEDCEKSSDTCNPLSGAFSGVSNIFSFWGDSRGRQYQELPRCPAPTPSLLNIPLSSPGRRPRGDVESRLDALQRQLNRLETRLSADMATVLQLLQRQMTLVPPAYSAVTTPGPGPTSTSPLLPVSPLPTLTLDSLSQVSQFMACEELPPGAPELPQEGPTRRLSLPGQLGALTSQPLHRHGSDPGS
row,Structure (SMILES),"hERG current change (%, negative = inhibition) at 1uM"
1,Cc1nc(SCC(=O)c2ccccc2)c([N+](=O)[O-])[nH]1,12.7%
2,CCC(c1nnnn1Cc1cccs1)N1CCN(C2CCCC2)CC1.Cl (stereo not shown),4.77%
3,COc1ccc(OC)c(NC(=O)CCN2CCN(CCO)CC2)c1,10.9%
4,Cc1ccc2c(C)c(C(=O)NCC(C)(C)N3CCOCC3)oc2c1C,-0.765%
5,O=C(O)c1ccc(Cl)c(S(=O)(=O)NCc2ccco2)c1,9.31%
6,COc1cc(NC(=O)CCS(=O)(=O)c2ccc3c(c2)oc(=O)n3C)cc(OC)c1,-7.08%
7,O=C(NCCc1ccccc1)c1ccc(Cl)c([N+](=O)[O-])c1,-3.49%
8,COc1ccc(CNC(=O)CN(CC2CCCO2)C(=O)CNS(=O)(=O)c2ccc(C)cc2)cc1 (stereo not shown),1.68%
9,CNS(=O)(=O)c1cccc(C(=O)NCC(c2ccco2)N(C)C)c1 (stereo not shown),6.66%
10,Cn1c(=O)c2ccccc2n(CC(=O)NC2CCCC2)c1=O,7.21%
11,Cc1ccc2c(n1)sc1c(-c3ccc(Br)cc3)c(C#N)c(N)nc12,9.19%
12,C/C(CC(=O)Nc1ccc(F)cc1)=N\NC(=O)COc1ccccc1,8.91%
13,Cc1ccc(C(=O)Nc2cccnc2Oc2ccc(Cl)cc2)cc1,11.1%
14,Cc1ccc2c(C)c(C(=O)NCCN3CCOC3=O)oc2c1C,6.97%
15,O=C(CCN1CCOCC1)Nc1ccc(Br)cc1C(=O)c1ccccc1,-0.737%
16,COc1ccc(CCn2c(O)c(C=NCCN3CCCCC3)c(=O)[nH]c2=O)cc1OC,-3.3%
17,CC1Sc2ccc(S(=O)(=O)CCC(=O)N3CCCC3)cc2NC1=O (stereo not shown),11.1%
18,COc1ccccc1NC(=O)C(=O)N1CCCC1,13%
19,COc1ccc(S(=O)(=O)NC(C)C(=O)Nc2ccc3c(c2)OCO3)cc1OC (stereo not shown),18.7%
20,COc1cc(-c2nnn(Cc3ccccc3C)n2)cc(OC)c1OC,14.9%
21,Cc1ccnc(N2C(=O)C3C4CC(C(Br)C4Br)C3C2=O)c1 (stereo not shown),14.4%
22,COc1ccc(C(C(=O)NCc2ccccc2)N(Cc2ccco2)C(=O)c2cnccn2)cc1 (stereo not shown),9.23%

row,Structure (SMILES),"hERG current change (%, negative = inhibition) at 1uM"
1,Cc1ccc(S(=O)(=O)N(C)CC(=O)OCC(=O)Nc2ccccc2)cc1,7.03%
2,COC(=O)C1CCCN1C(=O)C1CCCN1C(=O)CNC(=O)OCc1ccccc1 (stereo not drawn) (Cbz-Gly-Pro-Pro-OMe; configuration not given here),10.6%
3,COc1ccc2c(c1)C(C)=CC(C)(C)N2C(=O)CN1C(=O)CCC1=O,-0.218%
4,CCOC(=O)c1c(-c2ccccc2)csc1NC(=O)c1cc(-c2ccccc2OC)on1,-6.23%
5,CN(C)C=O.Cc1ccc(S(=O)(=O)N(C)C)cc1NC(=S)Nc1ccc2[nH]c(=O)[nH]c2c1,17%
6,Cc1cc(C(=O)NC2CCCc3c2cnn3-c2ccc(C(C)(C)C)cc2)nn1C (stereo not shown),16.5%
7,COc1ccccc1CNC(=O)CSc1nc(=O)n(Cc2ccncc2)c2c1CCC2,18.2%
8,Cn1c(CSCc2ccccc2Cl)nnc1SCC(=O)Nc1nccs1,2.67%
9,O=C(Nc1cccc(Cl)c1)c1cnn2cccnc12,12.9%
10,CCCCOC(=O)c1cc(C)nc2ccc(Br)cc12,9.64%
11,Cc1nnc(SCC(=O)N2CCOCC2)[nH]c1=O,5.99%
12,Cc1ccc(S(=O)(=O)N2CCCCC2)cc1NC(=O)CN1CC=C(c2ccccc2)CC1,-0.529%
13,COc1ccccc1CC(=O)Nc1ccc2c(c1)CCC2,18.2%
14,O=C(Nc1ccnc(-c2cccnc2)n1)c1ccc(Cl)cc1,-11%
15,Cc1ccc(C)c(C(=O)COc2ccccc2[N+](=O)[O-])c1,17.4%
16,Cc1ccc(S(=O)(=O)N2CCCCC2C(=O)O)s1 (stereo not shown),12.2%
17,Cc1ccc(C)c(NC(=S)NC(C)C(c2cccs2)N2CCOCC2)c1 (stereo not shown),12.2%
18,C=CC[C@@H]1C=C[C@H](O/N=C/[C@@H](NS(=O)(=O)c2ccc(C)cc2)[C@H](C)/C=C/CC(=O)OC)[C@@H](CO)O1,6.46%
19,Cc1ccc(/C=N/Nc2nc3ccccc3s2)o1,-2.87%
20,CCCC(=O)Nc1ccccc1NC(=O)c1ccc(OC(C)=O)cc1,6.27%
21,O=C(Nc1ccc(-c2nc3ccccc3o2)cc1)C1CCCO1 (stereo not shown),-5.07%
22,Cc1cc(C(=O)N/N=C/c2ccc3c(c2)OCO3)c2ccccc2n1,13.9%

row,Structure (SMILES),"hERG current change (%, negative = inhibition) at 1uM"
1,Cc1ccc(C(CNS(=O)(=O)c2ccc(F)cc2)N2CCN(C)CC2)cc1 (stereo not shown),-18.4%
2,CCn1c(C)c(C)c2cc(C(=O)NCCN3CCCCCC3)ccc21,-0.0068%
3,CCOC(=O)c1cn2nc(SCc3ccccc3)nc2nc1C,-1.9%
4,Cc1ccc(NC(=O)C2CCCN2C(=O)NCc2ccccc2)cc1 (stereo not shown),9.84%
5,CCCCCc1nnc(NC(=O)CS(=O)(=O)Cc2ccccc2)s1,0.943%
6,Cc1ccc(/C=C2\SC(=S)N(CC(=O)Nc3ncc(Cc4ccccc4Cl)s3)C2=O)cc1,-0.392%
7,COc1ccc(Cc2nnc(SCC(=O)c3ccc(OC)cc3)o2)cc1,14.7%
8,Cc1c(C)n(Cc2ccccc2)c2ccc(C(=O)NCCCN3CCOCC3)cc12,16%
9,COc1cccc(CN2CC(C(=O)N(C)CC3CCOCC3)CCC2=O)c1 (stereo not shown),12.6%
10,Cn1ncc([N+](=O)[O-])c1C(=O)N/N=C/c1ccc(F)cc1,-3.01%
11,O=S(=O)(Nc1cccc(-c2ccc3nncn3n2)c1)c1ccc(Cl)s1,0.287%
12,CCN(CC)S(=O)(=O)c1ccc(OC)c(NS(=O)(=O)Cc2ccccc2)c1,6.87%
13,O=C1N[C@@H](Cc2ccccc2)C(=O)N2[C@@H]1C[C@]1(Br)c3ccccc3N(S(=O)(=O)c3ccccc3)[C@H]21,16%
14,Cc1cccc(NC(=S)Nc2ccccn2)c1C,5.09%
15,COCc1ccc(C(=O)N(C)CC2CCCN(CCc3ccc(Cl)cc3)C2)o1 (stereo not shown),-65.1%
16,CCCOc1ccc(-c2nc(OCC)c3ccccc3n2)cc1,10.3%
17,CCn1c(=NC(=O)c2cccc(N3C(=O)CCC3=O)c2)sc2c(C)ccc(OC)c21,23%
18,O=C(NC(=S)Nc1ccccc1N1CCOCC1)c1cccc([N+](=O)[O-])c1,17%
19,O=C(O)c1cc(-c2cccs2)nc2ccc(F)cc12,11.4%
20,CCc1ccccc1NC(=O)c1ccccc1Sc1ccc([N+](=O)[O-])cc1Cl,3.11%
21,COc1cc(Cl)ccc1OCc1cc(C(=O)N2CC[C@@H]3CCCC[C@H]3C2)no1,17.2%
22,O=C(NCc1ccccn1)c1ccc(N2CCCC2)c([N+](=O)[O-])c1,9.04%

row,Structure (SMILES),"hERG current change (%, negative = inhibition) at 1uM"
1,COC(=O)C(C)(C(=O)OC)c1ccccc1[N+](=O)[O-],11%
2,Cn1c(=O)c2cc(S(=O)(=O)NCCC(=O)NC3CCCCCC3)ccc2n(C)c1=O,1.35%
3,COC(=O)NNC(=O)COc1ccccc1C,7.96%
4,C=CCC(C)(NCc1ccccc1)c1ccco1.Cl (stereo not shown),13.3%
5,CCN1CCN(c2ccc(S(=O)(=O)N3CCCCC3)cc2NC(=O)Cc2c(Cl)cccc2Cl)CC1,0.891%
6,CCOC(=O)c1c(-n2cnnn2)sc(C)c1C,-0.545%
7,COc1ccc(/C=N/NS(=O)(=O)c2ccc(C)cc2)cc1,9.73%
8,CCOc1ccc(/C=C/C(=O)c2ccccc2)cc1,12.9%
9,COc1ccc(NC(=O)CSc2n[nH]c(=O)n2C2CC2)cc1OC,8.43%
10,CC(=O)c1sc(-c2ccccc2)cc1N,9.14%
11,O=C(Nc1cccc2c1CCCC2)C1CCN(C(=O)NC2CCCCC2)CC1,7.73%
12,CC(=O)NS(=O)(=O)c1cccnc1Nc1cccc(Cl)c1C,8.79%
13,CCOC(=O)C1(Cc2ccccc2)CCN(Cc2ccc(C3CCCCO3)s2)CC1 (stereo not shown),-1.26%
14,CC1CCN(C(=O)C2CCCN(S(C)(=O)=O)C2)CC1 (stereo not shown),15.8%
15,Nc1ccnc(C(F)(F)F)c1C(=O)c1ccccc1,4.73%
16,O=C1OC(c2ccc(Cl)cc2)=N/C1=C\N1CC2CC(C1)c1cccc(=O)n1C2 (stereo not shown),-38.4%
17,Cc1cc(C)c(CN2CCN(C(=O)Cn3ccc(NC(=O)OCc4ccccc4)nc3=O)CC2)c(C)c1,2.23%
18,Fc1ccccc1CSc1nnc(-c2cccnc2)o1,21%
19,C#Cc1ccc([C@H]2C=C(C(=O)N3CCOCC3)O[C@@H](OCC)[C@@H]2CCCO)cc1,10.3%
20,CCOc1nc(NC2CCCC2)nc(N2CCC(C)CC2)n1,11.6%
21,CC(=O)N1c2ccc(S(=O)(=O)N3CCC(C(=O)NCc4ccccc4)CC3)cc2CC1C (stereo not shown),2.71%
22,CCCCC(=O)Nc1ccc(C(=O)NNC(=S)NC(=O)c2ccccc2[N+](=O)[O-])cc1,11.6%
